{"source": "the RNAGym collection of RNA variant scans (doi:10.1093/nar/gkz1192)", "parents": {"B1": {"name": "CPEB3 Ribozyme (parent)", "chain": "UAACAGGGGGCCACAGCAGAAGCGUUCACGUCGCAGCCCCUGUCAGAUUCUGGUGAAUCUGCGAAUUCUGCUGUAUAUCUC"}}, "note": "Read counts are not given, so values of variants with three or more changes are uncertain.", "data": [{"variants_of": "B1", "experiment": "self-cleavage, relative activity (ratio to wild type); higher = more cleavage; in vitro, sequencing", "in_short": "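After error-prone PCR and barcoding, CPEB3 ribozyme mutant libraries were transcribed with T7 RNA polymerase at 37°C for 5 hours, then given 15 min with DNase I before an EDTA stop, and they cleaved during both steps. Reverse transcription with template switching preceded Illumina sequencing. Relative activity divides a variant's cleaved/total read fraction by the unmutated ribozyme's. At least 5 reads were required per variant, and three batches were averaged.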", "values": [{"variant": "A13G A65G U80C", "self-cleavage": 0.27}, {"variant": "A13G C14A A15G G33A U72G", "self-cleavage": 0.18}, {"variant": "A13G C14A G19A U76A U80A", "self-cleavage": 0.19}, {"variant": "A13G C14U U41C U60A", "self-cleavage": 0.46}, {"variant": "A13G C17A C23U U25C U69C A75G", "self-cleavage": 0.05}, {"variant": "A13G C17U A21G", "self-cleavage": 0.35}, {"variant": "A13G C17U A35G A47G", "self-cleavage": 0.15}, {"variant": "A13G C17U G19A U25A U54G", "self-cleavage": 0.13}, {"variant": "A13G C17U G33A A35U U72A", "self-cleavage": 0.29}, {"variant": "A13G C17U U31A", "self-cleavage": 0.3}, {"variant": "A13G C17U U60G U80C", "self-cleavage": 0.13}, {"variant": "A13G C23U U76C", "self-cleavage": 0.26}, {"variant": "A13G C27A A28G A35U U60C U69C", "self-cleavage": 0.06}, {"variant": "A13G C27A C29A U74A", "self-cleavage": 0.34}, {"variant": "A13G C29A G70U", "self-cleavage": 0.11}, {"variant": "A13G C29U A65G U80C", "self-cleavage": 0.14}, {"variant": "A13G C29U U54C U78C", "self-cleavage": 0.2}, {"variant": "A13G C32A A64U", "self-cleavage": 0.15}, {"variant": "A13G C39G U67C", "self-cleavage": 0.23}, {"variant": "A13G C39U A45U C81U", "self-cleavage": 0.36}, {"variant": "A13G C40A U51G A57G", "self-cleavage": 0.17}, {"variant": "A13G C40A U74C", "self-cleavage": 0.07}, {"variant": "A13G C59U U60A U80A", "self-cleavage": 0.13}, {"variant": "A13G C62A U67C", "self-cleavage": 0.16}, {"variant": "A13G G16A A28G C62U", "self-cleavage": 0.35}, {"variant": "A13G G16C A28G U60C", "self-cleavage": 0.67}, {"variant": "A13G G16U A20G U54C U67C", "self-cleavage": 0.1}, {"variant": "A13G G19C A47G A56G U66C", "self-cleavage": 0.07}, {"variant": "A13G G22A U48C U60G", "self-cleavage": 0.08}, {"variant": "A13G G22C U49C U51A", "self-cleavage": 0.05}, {"variant": "A13G G24A A35G U66C", "self-cleavage": 0.09}, {"variant": "A13G G24A C38U U49A U60A A64G C71U", "self-cleavage": 0.04}, {"variant": "A13G G24A U26C U54C U74C", "self-cleavage": 0.1}, {"variant": "A13G G24A U43C", "self-cleavage": 0.15}, {"variant": "A13G G24U U26A A35U C40U", "self-cleavage": 0.16}, {"variant": "A13G G30A C37A A47U G53A A65U", "self-cleavage": 0.07}, {"variant": "A13G G30A U31C", "self-cleavage": 0.25}, {"variant": "A13G G30A U49C U54C A56G A65U", "self-cleavage": 0.02}, {"variant": "A13G G30U C34G", "self-cleavage": 0.08}, {"variant": "A13G G33C A45U U60G C81U", "self-cleavage": 0.1}, {"variant": "A13G G33C U78C", "self-cleavage": 0.13}, {"variant": "A13G G33U A35C", "self-cleavage": 0.08}, {"variant": "A13G G33U U43C A47G U54C U69C", "self-cleavage": 0.07}, {"variant": "A13G G36A U58A", "self-cleavage": 0.17}, {"variant": "A13G G52U U54G A65G U80A", "self-cleavage": 0.45}, {"variant": "A13G G53A A65U A77G", "self-cleavage": 0.19}, {"variant": "A13G G55A U66C", "self-cleavage": 0.14}, {"variant": "A13G G73U U76C U78C", "self-cleavage": 1.16}, {"variant": "A13G U25A C29U A57G U76C", "self-cleavage": 0.11}, {"variant": "A13G U25A C32A U43A U49C", "self-cleavage": 0.05}, {"variant": "A13G U25A U51C U72C", "self-cleavage": 0.4}, {"variant": "A13G U25A U60C U72C U76A U78A", "self-cleavage": 0.08}, {"variant": "A13G U25C A28G U66C", "self-cleavage": 0.28}, {"variant": "A13G U25C A56G A64G", "self-cleavage": 0.29}, {"variant": "A13G U25C G30A U41C U54C U78C", "self-cleavage": 0.1}, {"variant": "A13G U25C U41C U51G", "self-cleavage": 0.32}, {"variant": "A13G U25C U43C", "self-cleavage": 0.23}, {"variant": "A13G U25C U54C U66C A75G", "self-cleavage": 0.07}, {"variant": "A13G U25C U69C", "self-cleavage": 0.17}, {"variant": "A13G U25C U78C", "self-cleavage": 0.21}, {"variant": "A13G U25G U78C", "self-cleavage": 0.22}, {"variant": "A13G U26A A28C U41A A45G", "self-cleavage": 0.08}, {"variant": "A13G U26A A35G G61C", "self-cleavage": 0.09}, {"variant": "A13G U26A A35U U51A A57U A64U U67C", "self-cleavage": 0.08}, {"variant": "A13G U26A G30A U67A", "self-cleavage": 0.23}, {"variant": "A13G U26A U31C U58C A65U U72C", "self-cleavage": 0.08}, {"variant": "A13G U26A U41C U67C", "self-cleavage": 0.09}, {"variant": "A13G U26A U43C A47G U58A U80A", "self-cleavage": 0.11}, {"variant": "A13G U26A U51A", "self-cleavage": 0.81}, {"variant": "A13G U26A U51C", "self-cleavage": 0.79}, {"variant": "A13G U26C A28G G73C", "self-cleavage": 0.23}, {"variant": "A13G U26C A28U", "self-cleavage": 0.37}, {"variant": "A13G U26C A45U U69A G70A", "self-cleavage": 0.2}, {"variant": "A13G U26C A65U", "self-cleavage": 0.17}, {"variant": "A13G U26C C27A C81U", "self-cleavage": 0.13}, {"variant": "A13G U26C C38U", "self-cleavage": 0.22}, {"variant": "A13G U26C G30A C50G A64G", "self-cleavage": 0.19}, {"variant": "A13G U26C G33A C40U U41C C68G", "self-cleavage": 0.04}, {"variant": "A13G U26C U41A U54C U78A", "self-cleavage": 0}, {"variant": "A13G U26C U41G G70A U80C", "self-cleavage": 0.14}, {"variant": "A13G U26C U43C U49A A57G", "self-cleavage": 0.05}, {"variant": "A13G U26C U43C U51A", "self-cleavage": 0.56}, {"variant": "A13G U26C U54C", "self-cleavage": 0.63}, {"variant": "A13G U26C U58C", "self-cleavage": 0.17}]}]}
